assay: soluble on expression in E. coli; label from the status in PepcDB or PDB records

| Sequence | soluble on expression in E. coli |
| --- | --- |
| GNTPYVTKDLLQAKRFQAQTLGTTYIYDFPEMFRQALFKLWGSPDKYPKDILTYTELVLDSQGQLVEMNRLPGGNEVGMVAFKMRFKTQEYPEGRDVIVIGNDITFRIGSFGPGEDLLYLRASEMARAEGIPKIYVAANSGARIGMAEEIKHMFHVAWVDPEDPHKGFKYLYLTPQDYTRISSLNSVHCKHIEEGGESRYMITDIIGKDDGLGVENLRGSGMIAGESSLAYEEIVTISLVTCRAIGIGAYLVRLGQRVIQVENSHIILTGASALNKVLGREVYTSNNQLGGVQIMHYNGVSHITVPDDFEGVYTILEWLSYMPKDNHSPVPIITPTDPIDREIEFLPSRAPYDPRWMLAGRPHPTLKGTWQSGFFDHGSFKEIMAPWAQTVVTGRARLGGIPVGVIAVETRTVEVAVPADPANLDSEAKIIQQAGQVWFPDSAYKTAQAIKDFNREKLPLMIFANWRGFSGGMKDMYDQVLKFGAYIVDGLRQYKQPILIYIPPYAELRGGSWVVIDATINPLCIEMYADKESRGGVLEPEGTVEIKFRKKDLIKSMRRIDPAYKKLMEQLGEPDLSDKDRKDLEGRLKAREDLLLPIYHQVAVQFADFHDTPGRMLEKGVISDILEWKTARTFLYWRLRRLLLEDQVKQEILQASGELSHVHIQSMLRRWFVETEGAVKAYLWDNNQVVVQWLEQHWQAGDGPRSTIRENITYLKHDSVLKTIRGLVEENPEVAVDCVIYLSQHISPAERAQVVHLLSE | soluble |
| KMEYEITNYSERHTELPGHFIGLNTVDKLEESPLRDFVKSHGGHTVISKILIANNGIAAVKEIRSVRKWAYETFGDDRTVQFVAMATPEDLEANAEYIRMADQYIEVPGGTNNNNYANVDLIVDIAERADVDAVWAGWGHASENPLLPEKLSQSKRKVIFIGPPGNAMRSLGDKISSTIVAQSAKVPCIPWSGTGVDTVHVDEKTGLVSVDDDIYQKGCCTSPEDGLQKAKRIGFPVMIKASEGGGGKGIRQVEREEDFIALYHQAANEIPGSPIFIMKLAGRARHLEVQLLADQYGTNISLFGRDCSVQRRHQKIIEEAPVTIAKAETFHEMEKAAVRLGKLVGYVSAGTVEYLYSHDDGKFYFLELNPRLQVEHPTTEMVSGVNLPAAQLQIAMGIPMHRISDIRTLYGMNPHSASEIDFEFKTQDATKKQRRPIPKGHCTACRITSEDPNDGFKPSGGTLHELNFRSSSNVWGYFSVGNNGNIHSFSDSQFGHIFAFGENRQASRKHMVVALKELSIRGDFRTTVEYLIKLLETEDFEDNTITTGWLDDLI | soluble |
| MAQGQRKFQAQKPKSKAAAAERSRGPRKGGRVIAPKKARVVQQQKLKKSLEVGIRKKIEHDVVMKASSSLPKRLALLKGASKKSEATIPGKTPS | not soluble |
| MKPMYRSRSWRRKYVRTPGGRVVIHFERKKPKIAHCAMCGRPLNGIPRGRPVEMRKLPKTKKRPERPMPHLCPRCMRKVMKEQIRAQLSLEHHHHHH | soluble |
| MKRTGPTDPNLRRLIRFLKKKSNEEGVKIWKDLAWRLERPRRQRAEVNVSKINRYAKDGDMIVVPGSVLGAGKLEKKVIVAAWKFSETARKKITEAGGEAITIEELIERNPKGSGVIIME | soluble |
| MKTNDVRVDTKLNKFIWSKGIKNVPYRVRVRLSRRRNEDEDSAQKLYTLCTYVPCTNFHGLTNVNVDSEE | not soluble |
| MPAFHSEIEDFQASVGNMALLPLRTQVRGPAPTVDIPNDIIDESLYFWKSNIFFRTYEVKSEVDRVLIYITLYITECLKRLARCTSKSQGQQELYTLAISRFDIPGDAGFPLNGIYTKPEDPELMRQYFLQLRQETGNRLLEKVFDTPDGKPSKWWICFAKKKFMEKSLSGPGMLEHHHHHH | not soluble |
| SSFPGMPKWRKTHLTYRIVNYTPDLPRDAVDSAIEKALKVWEEVTPLTFSRLYEGEADIMISFAVKEHGDFYSFDGPGHSLAHAYPPGPGLYGDIHFDDDEKWTEDASGTNLFLVAAHELGHSLGLFHSANTEALMYPLYNSFTELAQFRLSQDDVNGIQSLYGPPPASTEEPLVPTKSVPSGSEMPAKCDPALSFDAISTLRGEYLFFKDRYFWRRSHWNPEPEFHLISAFWPSLPSYLDAAYEVNSRDTVFIFKGNEFWAIRGNEVQAGYPRGIHTLGFPPTIRKIDAAVSDKEKKKTYFFAADKYWRFDENSQSMEQGFPRLIADDFPGVEPKVDAVLQAFGFFYFFSGSSQFEFDPNARMVTHILKSNSWLHC | soluble |
